We go through 22 molecules from publication PMC12136788.

B1: chr1:202147012:202148699:-|three_prime_utr|ENSG00000143851|control|control|control (ssRNA)
RNA: GGGAGUUCUACAGUCCGACGAUCAAGUGGGCCGAGUGAUCUGGGGGUACCCCUUGGGUUGGUGUGGGGAAGGAGUGCCUCCUUAGUGGUGCUUGCAGUCACAGGAAGCAGCAGCAGUAAGGACAAGGGGCCGGAUUCCAGGUCCAACAGAGGAUUGAGCAUCA
B2: ENSG00000198589:be:win_3051|CDS|ENSG00000198589|bound_else_gene|NA|bound_elsewhere_windowed (ssRNA)
RNA: GGGAGUUCUACAGUCCGACGAUCAGAAAUGAAAGCUGAGCAAGAAAAUCAGGAGUUACCAGAUGAAGGCACUUUGGAAGAAACACUGACAAAUGAGACAAGGAAUGCAGAUGAUUUAGAAGUAUCUUCUGACAUAAUAGAAGCCAACAGAGGAUUGAGCAUCA
B3: chr7:135927258:135927359:-|3pUTR|ENSG00000105887|msi1_unk|total|mutant (ssRNA)
RNA: GGGAGUUCUACAGUCCGACGAUCCAGCUUCAGACUGUUAUCUACCGGCUUAUCGUUCAAAUACAGCACUUGAAUAUCCCAAGCCGUUCUUCUACGCACCGCUCACCUUUCUAAACCCAGUUAAGCAUGGAAGAGAGGCCGCCGCAACAGAGGAUUGAGCAUCA
B4: chr2:210024032:210024201:-|CDS|ENSG00000144445|control|control|control (ssRNA)
RNA: GGGAGUUCUACAGUCCGACGAUCUACAGUAAAAAUGUUGAAGGACAGGACUUGCUUUUGAAAGAAUACCCUAAUAACUUCAGUAGCAGUCAGCAAUGUGCUGCUGCAAGUCCUCCUGGGCUUCCUUCAGAGAACCAGGAUCUGCAACAGAGGAUUGAGCAUCA
B5: chr8:58579689:58579790:+|CDS|ENSG00000137575|msi1|FALSE|bound_elsewhere (ssRNA)
RNA: GGGAGUUCUACAGUCCGACGAUCAGCACUGGACAUGUUGGUUUUAUCUUUAAAAAUGGAAAAAUAACAUCCAUAGUGAAAGAUAGCUCUGCAGCCAGAAAUGGUCUUCUCACGGAACAUAACAUCUGUGAAAUCAAUGGACAGCAACAGAGGAUUGAGCAUCA
B6: chr9:95099063:95099164:-|3pUTR|ENSG00000158169|unk|total|mutant (ssRNA)
RNA: GGGAGUUCUACAGUCCGACGAUCGAGCGCCCCUCCAACCAGGCUGUUAUUCCCCUGGACUCCGUGACAUCUGUGGAAUUUUUCCGCUCUUUAAAAUCUGUAAUUUGUUGUCUAUUUUUUCAUUCUAAAUAAAACUUCAGUUUGCAACAGAGGAUUGAGCAUCA
B7: ENSG00000136451:be:win_551|CDS|ENSG00000136451|bound_else_gene|NA|bound_elsewhere_windowed (ssRNA)
RNA: GGGAGUUCUACAGUCCGACGAUCGAGAUGUGUACCAUCUCAAUCGACACAAGCUCUCCCAUUCAGAUGAGAAACCCUUUGAGUGUCCUAUUUGUAAUCAGCGCUUCAAGAGGAAGGACCGGAUGACUUACCAUGUGAGGUCUCCAACAGAGGAUUGAGCAUCA
B8: chr1:32680599:32680700:+|3pUTR|ENSG00000162521|msi1|FALSE|unique (ssRNA)
RNA: GGGAGUUCUACAGUCCGACGAUCAAGUGCUUAAAAUGGAAUAAAUUGCUUUUCUACAUAACCCCAUGCUGAUGGGUUUUAUUUAGUAUAAAACAUCCAUCAAACACCAGUCUCUGGCUUCUAGAAGAGUCCUUCAGAUGACAGCAACAGAGGAUUGAGCAUCA
B9: chr1:74475294:74475810:-|CDS|ENSG00000162621|control|control|control (ssRNA)
RNA: GGGAGUUCUACAGUCCGACGAUCUUUAGAAACCUGAAAAAGAAAGACCGUGGGGUAGGCAGCACUUUAUUUUGCCAGGAUGGUAGAUUGCUGCAUUCGGAAUGUUCAGAGCCUCCUGGAAAUAUGAGAGCUUUUAAUGAAGCACAACAGAGGAUUGAGCAUCA
B10: ENSG00000146842:stop:overlap|stop_codon|ENSG00000146842|stop_codon|NA|stop_codon (ssRNA)
RNA: GGGAGUUCUACAGUCCGACGAUCUGCUUGGGAGAGUUAAUCUUGGUCUAUCUGGUGUGAAUAUAUUGUGGAUCUUUGGCGAGUAGCAAGUCAUAUAUUUAAUUCUGACAUUUAGACUAUUUCACUGAACCAGAAGUCGAAACUCAACAGAGGAUUGAGCAUCA
B11: chr1:37590682:37590793:-|CDS|ENSG00000134697|unk|FALSE|unique (ssRNA)
RNA: GGGAGUUCUACAGUCCGACGAUCAAGCAAAGCAAGUUACCAAUGUCUCUUCUCCAUGAUCGAAUCCGGCCUCAUGUAAGAUGUAGGAUAUCCCUGGUGAUGGAAUUUCCUGGGCAAACUCCAUGCAGAUCCCUCUCUAACAUACAACAGAGGAUUGAGCAUCA
B12: chr3:10101824:10101929:+|3pUTR|ENSG00000144554|unk|total|mutant (ssRNA)
RNA: GGGAGUUCUACAGUCCGACGAUCAAAAUCUCUGAGUCAUGAUUCUGGACUUUGGGAGCCCGUUUUGAAACUCUGAUUUAUUGCCGAACUCCGGCUUGUACCAAUUUUACAAAUAAAUUCUGUUCUAAGUUCUGCCUCAGUUGCCAACAGAGGAUUGAGCAUCA
B13: chr17:48061271:48061372:+|3pUTR|ENSG00000082641|msi1|FALSE|unique (ssRNA)
RNA: GGGAGUUCUACAGUCCGACGAUCAGUGAAAUGGGGGUGGGGGGAAGCACUGAUUCCCAGUUAGGGGGUGCCUAACUGAGCAGUAGGGAUAGAAGGUGUGAACCUGGGAGUGCUUUUAUAAAUUAUUUUCCUUGUAGAUUUUAUCAACAGAGGAUUGAGCAUCA
B14: chr1:43623430:43623515:+|3pUTR|ENSG00000142949|msi1_unk|FALSE|overlapping (ssRNA)
RNA: GGGAGUUCUACAGUCCGACGAUCGGCGGGGAAGGGUGCAUAGCUGUUUUAGCUGAGGGACGUGGUGCCGACGUCCCCAAACCUAGCUAGGCUAAGUCAAGAUCAACAUUCCAGGGUUGGUAAUGUUGGAUGAUGAAACAUUCACAACAGAGGAUUGAGCAUCA
B15: chr13:20822168:20822271:-|CDS|ENSG00000132953|unk|FALSE|unique (ssRNA)
RNA: GGGAGUUCUACAGUCCGACGAUCUCGAAAAAUCAGAGAAGAUUCAGAUAUGGCACAAGAUUCUCUGCAGUGCCUUGCCCAGUUAGCUUCUCUUCAUGGACCCAUCUUCCCAGAUGAAGGAUCACAAGUUGAUUAUCUAGCACACAACAGAGGAUUGAGCAUCA
B16: chr1:117869688:117869789:-|3pUTR|ENSG00000196505|msi1|total|mutant (ssRNA)
RNA: GGGAGUUCUACAGUCCGACGAUCACUCCAGCAGUGAGCAUUCCGAGAGUGUGUUGUCUUCCAGAGUCAUGAAUGAUUUUGUUCCGCUAUCAGGUCUACUACCUCUAAGGACAUUUCACCGCAGCAUCUCUUGAGUUGCCUGCACAACAGAGGAUUGAGCAUCA
B17: chr1:205810550:205810651:-|5pUTR|ENSG00000133065|unk|total|mutant (ssRNA)
RNA: GGGAGUUCUACAGUCCGACGAUCUUGCGGCUUCAGUGCUUGAUGGGGCUGCCUGUUGGUGGAUCAGUUUUUGCAGUGCCUGGCCGGAGUGGAGAGCCGUGGGAAGAGGUCCUGCGGCGCCCAAGCCUGGGUUCACCCCAAGACCAACAGAGGAUUGAGCAUCA
B18: chr11:46542767:46542868:-|CDS|ENSG00000110497|msi1|total|mutant (ssRNA)
RNA: GGGAGUUCUACAGUCCGACGAUCAACACGCUCCGCAACCUCAGUCUGGGUCCUACCCGCCGCUCUUUGGGAGGGCCUCUGUCCCGCCACCCUUCCCGGUAUCACCGAGAAACCGCUCCUGGGUUGACAGGAUCUGAGUGGACCCAACAGAGGAUUGAGCAUCA
B19: ENSG00000167528:stop:overlap|stop_codon|ENSG00000167528|stop_codon|NA|stop_codon (ssRNA)
RNA: GGGAGUUCUACAGUCCGACGAUCCCCAGGACUUAGAGGAGAGGGACAUUCUGAGGGUCACAUAUACAGGUAAGAACCUAGAAUAGGCUUUCAGCCACUUCCUUCACAGUUCGGGACAUCAUCAUUCCAUGUUCGUUUAAUCCCCAACAGAGGAUUGAGCAUCA
B20: chr17:69153304:69154009:-|three_prime_utr|ENSG00000154263|control|control|control (ssRNA)
RNA: GGGAGUUCUACAGUCCGACGAUCUGGGCAAAGAAGAUGCUGCUCUCAGUAUUUCACGGUACAGAGAGAAGUCUCACAAUUUGUAGCAGGAGGAAGGGGAAAAUAUGUCAUUUCUUCAUUAUAUAUUAAAAGGAAAUUAUAAACCAACAGAGGAUUGAGCAUCA
B21: ENSG00000070961:be:win_5951|3pUTR|ENSG00000070961|bound_else_gene|NA|bound_elsewhere_windowed (ssRNA)
RNA: GGGAGUUCUACAGUCCGACGAUCACACCAACUCUAAUCCAUAAACGGGUCUUAUGACAUCUAUGAAGUAGUAGCAAGACAUGCUUAGUGUGUAUUUCUCUCUUUGAGACACUGUAAUUUCUACCAGAAAUUUCCAGAGCAUUACAACAGAGGAUUGAGCAUCA
B22: chr4:55904547:55904648:+|3pUTR|ENSG00000090989|msi1|FALSE|bound_elsewhere (ssRNA)
RNA: GGGAGUUCUACAGUCCGACGAUCAAAAUACCAAGCAACUGUUUUGAGAACCCAGACUUAAAAUUUUAUGUAUUAUUAAAUGUUAGAUAAAUGGGUAGUACCAUACUACAAAUAUUUAAAUGCAAAAUUACCAACCUAUAUAGCCAACAGAGGAUUGAGCAUCA

This is one part of the list.

The assay deals with MSI1 full-length (mouse, UniProt Q61474 1-362). Kind of assay: nsRBNS (natural sequence RNA bind-n-seq); RBNS binding buffer (assumed for nsRBNS): 25 mM Tris pH 7.5, 150 mM KCl, 3 mM MgCl2, 0.01% Triton X-100, 500 ug/ml BSA, 20 U/ml SUPERase-In, 4 C; UNK is unkempt and MSI1 is Musashi-1; names of the RNAs are library labels; protein concentration not given here; high values mean tight binding.
Sequence of UniProt Q61474 (Q61474 whole entry): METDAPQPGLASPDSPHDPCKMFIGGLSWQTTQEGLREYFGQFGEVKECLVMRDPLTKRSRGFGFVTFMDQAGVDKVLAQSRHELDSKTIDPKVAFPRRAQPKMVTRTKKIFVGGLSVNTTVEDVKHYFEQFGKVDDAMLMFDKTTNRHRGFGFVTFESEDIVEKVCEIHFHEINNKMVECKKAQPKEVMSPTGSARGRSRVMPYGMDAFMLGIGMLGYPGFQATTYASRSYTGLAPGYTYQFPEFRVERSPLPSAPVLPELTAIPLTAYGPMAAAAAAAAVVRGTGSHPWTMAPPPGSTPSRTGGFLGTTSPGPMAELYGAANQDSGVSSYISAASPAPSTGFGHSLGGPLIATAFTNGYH
B1 returned a binding signal of 0.536 enrichment R.
The molecule B2 had a binding signal of 0.825 enrichment R.
In turn, B3 displayed a binding signal of 0.394 enrichment R.
B4 returned a binding signal of 0.408 enrichment R.
The molecule B5 had a binding signal of 0.291 enrichment R.
The result for B6 reads 0.763 enrichment R; that for B7, 0.307 enrichment R; that for B8, 0.478 enrichment R.
The result for B9 reads 0.481 enrichment R; that for B10, 0.426 enrichment R; that for B11, 0.396 enrichment R.
B12 came in with a binding signal of 0.338 enrichment R.
On to B13, for which the binding signal came to 4.67 enrichment R.
For B14, the binding signal came to 0.624 enrichment R.
Turning to B15, the binding signal worked out at 0.341 enrichment R.
Molecule B16 gave a binding signal of 0.256 enrichment R.
The molecule B17 registered a binding signal of 0.397 enrichment R.
In the case of B18, the binding signal was determined as 0.529 enrichment R.
B19 displayed a binding signal of 2.72 enrichment R.
B20 yielded a binding signal of 0.516 enrichment R.
The result for B21 reads 0.756 enrichment R; that for B22, 4.22 enrichment R.
